In the supplement of paper PMC10126150 one finds switch fluorescence ratio data, which are given here for 120 sequences.

Sequences with one replicate were seen in a single cluster, so their values are uncertain.

In this data set the test system is ATP. Kind of data set: switch fluorescence ratio, 500 uM ATP over buffer (Cy3 cluster intensity, sum of 5 cycles each) (fold (ratio)); higher = stronger signal-on switching upon ATP binding; sequences stand for … in TCGTCGGCAGCGTCAGATGTGTATAAGAGACAGTTTTTTTTTTTTTTTTTTTTTTTTT…TC. Particulars: aptamer strand: ATP DNA aptamer (quencher-CACCTGGGGGAGTATTGCGGAGGAAGG + anchor), 100 nM annealed; ATP concentration: 500 uM; one replicate. Summed up:
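Exposure to 500 uM ATP lasted 15 min at 22 °C before imaging, and a selection-buffer image was taken beforehand, for Cy3-labelled switching-strand clusters on a modified Illumina MiSeq flow-cell annealed to 100 nM quencher-labelled ATP aptamer. Five buffer/ATP cycles were run with NaOH stripping and re-annealing between them. The fluorescence ratio per cluster is summed target-cycle over summed buffer-cycle Cy3 intensity, averaged per switch-domain sequence. Clusters outside 100-1000 RFU were excluded.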
As to TACGTCGAGT, the switch fluorescence ratio turned out to be 0.994. To TGTTGTAAGA belongs 0.984; to TCGCTGCAAG, 1. CCGAGTGCGG: the switch fluorescence ratio worked out at 1.19. For the sequence TCTCGGTGCT, the switch fluorescence ratio came out at 0.986. Consider CATCACCA, for which the switch fluorescence ratio is 0.999. Take AATGGATG: the switch fluorescence ratio worked out at 0.99. The value for CATCTCCCGT was 1.02; that for ATTTTTAGTA was 0.957; that for GGTCCAAGCG was 0.992.

In the case of TTGATGGTAG, the switch fluorescence ratio came out at 0.965.

As for TGAACTGGGT, the switch fluorescence ratio worked out at 0.977.

Consider GGCTCTCACC, for which the switch fluorescence ratio came to 1.06. As to GGAGAAGCAG, the switch fluorescence ratio amounted to 1. Consider GAGGGTTACG, for which the switch fluorescence ratio is 1.03.

Take ACGTCAGAAC: the switch fluorescence ratio is 1.22. The value for CAGGGGCCCA was 0.997; that for CATAAATCCC was 0.997; that for TCCCGTTAGC was 1.15.

For GCTGTCGTGT, the switch fluorescence ratio came out at 1. To AGCGGCATAT belongs 1.04; to TACATTATAC, 1.21. Turning to AAAGTCTCTA, the switch fluorescence ratio was determined as 0.92. For the sequence CTCGTTTTGC, the switch fluorescence ratio is 0.945. Consider GAGGCCGATC, for which the switch fluorescence ratio came to 0.956. On to CTTTTTTTA, for which the switch fluorescence ratio is 1.01.

Turning to TAAGCCCGGG, the switch fluorescence ratio was 1.08. To CAAGCTTAGA belongs 0.954; to GAAATCTTAG, 1.01; to TTGCCCGAGG, 1.07.

As to GCCGACTTGT, the switch fluorescence ratio was determined as 1.04. The value for ACACAAGACT was 1.29. Turning to CTACACTCGT, the switch fluorescence ratio was 1.02. In the case of CGGAAATTTA, the switch fluorescence ratio turned out to be 1.02.

TTCAAGTCGA: the switch fluorescence ratio was found to be 1.01. The value for AGGATCTCTA was 1.01; that for TTCCCTTGCA was 1.07. Turning to GAATTAAGGG, the switch fluorescence ratio came to 1.01. With ACGCCGCTAA, the switch fluorescence ratio was 2.78. The value for CTCAAGTAAT was 1.55. The value for GAATAAGTG was 1.03. The value for AATATTTACA was 0.986. As to CCCAACAGGG, the switch fluorescence ratio came to 1.25. As to AGAGTGCCGG, the switch fluorescence ratio is 1.05. The value for AGGTTCTTAT was 0.975; that for TCGCTTCTTG was 0.984. The value for TCAACGTAAA was 1.13; that for TTGGAGAAGA was 1.12.

With CAGTGGGCTC, the switch fluorescence ratio was determined as 0.984. CGGAAGACC: the switch fluorescence ratio was determined as 1.16. Regarding TTGGAGGATC, the switch fluorescence ratio was 1.05. On to ATGTGCTTGA, for which the switch fluorescence ratio stood at 0.965. Regarding AACACTGACA, the switch fluorescence ratio was 1.32. Regarding TTTAACGGCC, the switch fluorescence ratio amounted to 0.984. To GTGACATTGG belongs 0.987; to TTGTCAATGA, 1.02. As to GTACTGGTCA, the switch fluorescence ratio is 0.957. To CAGGTTAAAG belongs 0.971; to GGAATGGAAG, 0.996. As to TGACAATCA, the switch fluorescence ratio amounted to 0.994. The value for TAGCGCTTCG was 1.02; that for CTCTATAATA was 1.13.

In the case of CGAGTATGTT, the switch fluorescence ratio is 0.964. The value for ACGATCGCTA was 2.85; that for GGTCGCATCA was 0.953; that for GGTTGCAGGC was 1.01. The value for CTCGGTAAAT was 1. To CTGGGCCTCG belongs 1.01; to GGTCCATCCA, 1.01. For GGTGAGAACT, the switch fluorescence ratio is 1.01. To TTGCTGGATA belongs 1.

TTTATGTCAG: the switch fluorescence ratio is 0.987.

For the sequence GAAGTAGTTG, the switch fluorescence ratio came out at 1. Regarding AGGAAAGGGG, the switch fluorescence ratio stood at 0.993. To TCTGTTATGG belongs 1. The value for AGCCCGTGGA was 1.1.

In the case of TAGGTACTCG, the switch fluorescence ratio is 1.03. The value for ACATTTCCCT was 1.05; that for CGACGCCGGG was 1.2; that for CCTGCTACG was 1.06. For AATCCATTGG, the switch fluorescence ratio stood at 1.04. To AATTGAAGT belongs 0.981. The value for CGGGTTGCTT was 1.04; that for TATCCAAGGA was 0.971. The value for AGTTCAGAGC was 0.954; that for TAGAACAGCG was 0.974; that for ATTCACGTGG was 1.01. As for GAGTGTAA, the switch fluorescence ratio came out at 0.963. For the sequence AGTGATTTTG, the switch fluorescence ratio stood at 1.02. The value for TTGGATTCTA was 0.958. Consider CAACTCTTAG, for which the switch fluorescence ratio is 0.969.

For TAGTGGTTAC, the switch fluorescence ratio was 1.04.

For AGTCACCTGT, the switch fluorescence ratio was found to be 1.18. The value for ACACAAGGGG was 0.99; that for CGGTATTAGC was 1.04; that for TAAAGCCCGA was 1.01. The value for GAGGATAATT was 0.998; that for AAGCGCTGGT was 0.983; that for TATAGTACTC was 1.05.

For the sequence AGTCCTGTCA, the switch fluorescence ratio amounted to 1.

With GCAGGTGCAA, the switch fluorescence ratio was found to be 0.918. Take CTATCGTATT: the switch fluorescence ratio is 0.994. The value for CACCATCCAA was 1.05; that for GAAATGTCAA was 0.969; that for CTTACGCAGA was 1.03. The value for GGGGCGTGCC was 0.983; that for CACTGGATCG was 1.05; that for TTGTGACTTG was 1.06. To ACTATGTGGG belongs 0.98. With GTCTTTAGCG, the switch fluorescence ratio worked out at 0.988. With AGCTCATCTT, the switch fluorescence ratio turned out to be 0.999.

On to CGAAAGGTGC, for which the switch fluorescence ratio came out at 1.17.

As for CTTTCGTCGG, the switch fluorescence ratio stood at 0.974. On to CTTAATAAAT, for which the switch fluorescence ratio is 1. TCCATGTTGT: the switch fluorescence ratio stood at 1.01. Regarding ATTGCCTCGT, the switch fluorescence ratio was 0.966. For CTTCTTTACT, the switch fluorescence ratio is 0.997. To GCTAGCCGCA belongs 1.08; to TACTGAAAAT, 1.11; to AGGAATACGC, 1.64.
